{"source": "PubChem BioAssay AID488969", "about": "(Vanderbilt High Throughput Screening Facility, 2010)", "note": "Over roughly 110,000 compounds, “z-score” has its median near -0.1; the highest 2% begin near 2. The list shows a part of the results."}
{"molecular_target": "Metabotropic glutamate receptor 8 (Rattus norvegicus) (UniProt P70579)", "sequence (P70579 whole entry, looked up)": "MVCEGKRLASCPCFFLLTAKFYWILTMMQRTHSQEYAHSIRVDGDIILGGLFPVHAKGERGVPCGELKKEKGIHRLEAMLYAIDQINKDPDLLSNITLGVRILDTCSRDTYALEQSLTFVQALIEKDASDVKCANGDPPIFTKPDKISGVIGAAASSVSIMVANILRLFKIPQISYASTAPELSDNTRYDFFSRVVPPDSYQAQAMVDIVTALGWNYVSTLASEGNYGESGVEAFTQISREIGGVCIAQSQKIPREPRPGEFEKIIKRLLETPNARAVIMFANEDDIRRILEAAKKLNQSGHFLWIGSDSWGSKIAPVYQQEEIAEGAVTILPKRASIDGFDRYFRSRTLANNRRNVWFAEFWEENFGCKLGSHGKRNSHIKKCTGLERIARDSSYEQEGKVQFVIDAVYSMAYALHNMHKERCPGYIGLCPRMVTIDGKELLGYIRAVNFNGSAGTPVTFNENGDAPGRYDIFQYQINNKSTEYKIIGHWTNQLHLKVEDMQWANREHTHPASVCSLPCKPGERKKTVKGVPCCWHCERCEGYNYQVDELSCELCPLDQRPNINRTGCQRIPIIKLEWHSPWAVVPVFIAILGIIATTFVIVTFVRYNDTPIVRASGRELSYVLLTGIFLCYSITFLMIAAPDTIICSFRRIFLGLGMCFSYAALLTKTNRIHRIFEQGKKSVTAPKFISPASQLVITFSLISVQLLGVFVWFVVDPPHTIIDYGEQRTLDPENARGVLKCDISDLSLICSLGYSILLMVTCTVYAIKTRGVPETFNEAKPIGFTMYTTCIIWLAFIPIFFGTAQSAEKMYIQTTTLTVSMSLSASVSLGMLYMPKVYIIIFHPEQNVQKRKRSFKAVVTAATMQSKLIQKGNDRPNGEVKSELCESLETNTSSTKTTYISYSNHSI", "experiment": "rat mGluR8 modulators via GIRK flux, primary screen, cell-based, thallium flux, HTS (AID 488969)", "conditions": "HEK293 rat mGluR8, GIRK (G protein-gated inwardly rectifying potassium channel) thallium flux, FluoZin2; at 10 µM; stronger effect = higher value; submaximal glutamate (EC20) added with thallium"}
{"smiles": "O=C(Nc1nnc(SCC(=O)N2CCOCC2)s1)c1ccccc1Cl", "z-score": -0.28}
{"smiles": "O=C(Nc1ccccc1-c1ccccc1)c1ccc(Br)o1", "z-score": -0.753}
{"smiles": "O=C(N/N=C/c1cccnc1)C1CCCN(S(=O)(=O)c2ccccc2)C1", "note": "(stereo not given)", "z-score": 0.0205}
{"smiles": "COc1cc(C(c2c(C)[nH][nH]c2=O)c2c(C)[nH][nH]c2=O)ccc1OS(=O)(=O)c1ccccc1", "z-score": 0.0965}
{"smiles": "O=C(CCC(=O)OCC(=O)c1ccccc1)Nc1cccc2cccnc12", "z-score": -0.0155}
{"smiles": "Cc1nc(NC(=O)c2ccc(Cl)cc2)sc1Cc1ccc2c(c1)OCO2", "z-score": 0.784}
{"smiles": "COc1ccc(OC)c(/C=N/NC(=O)c2cc[n+](CC(=O)c3ccccc3)cc2)c1", "z-score": 0.822}
{"smiles": "Cc1ccc(CNS(=O)(=O)c2ccc3c(c2)OCCO3)cc1", "z-score": -0.463}
{"smiles": "O=C(Nc1cc(Cl)ccc1O)c1snnc1-c1ccccc1", "z-score": -0.446}
{"smiles": "COc1ccc(C(=O)c2cc([N+](=O)[O-])ccc2N2CCCC2)cc1", "z-score": -0.381}
{"smiles": "CCN1C(=O)C(O)(C2COC(C)(C)CC2=O)c2ccccc21", "note": "(stereo not given)", "z-score": -0.866}
{"smiles": "Cc1cc2c(s1)c1cnn(Cc3ccccc3F)c(=O)c1n2C", "z-score": 0.537}
{"smiles": "Cc1ccc(C(CC(=O)N2CCOCC2)c2ccco2)cc1", "note": "(stereo not given)", "z-score": -0.0603}
{"smiles": "CCCNC(=O)c1cc2ccccc2c(=O)o1", "z-score": 0.043}
{"smiles": "Oc1ccccc1CNCCCNCc1ccccc1O", "z-score": -0.153}
{"smiles": "CC1(C)SC(=S)N(/N=C/c2ccc(O)cc2)C1N(O)C(=O)Nc1ccc([N+](=O)[O-])cc1", "note": "(stereo not given)", "z-score": 0.135}
{"smiles": "COCC(=O)Nc1ccccc1Br", "z-score": 0.0935}
{"smiles": "CC1=C(C(=O)NCc2ccccc2)C(c2cccs2)n2ncnc2N1", "note": "(stereo not given)", "z-score": -0.404}
{"smiles": "COc1ccc(S(=O)(=O)Nc2ccc(N(C)C(C)=O)cc2)cc1", "z-score": -0.379}
{"smiles": "Cc1cccc(-n2ncc3c(NCc4ccccn4)ncnc32)c1", "z-score": -0.229}
{"smiles": "CC1(C)Cc2nc3sc(C(=O)NCCO)c(N)c3cc2CO1", "z-score": 0.0334}
{"smiles": "CCOC(=O)C1=NNC2C(=O)N(C3CCCCC3)C(=O)C12", "note": "(stereo not given)", "z-score": 0.0294}
{"smiles": "COc1cccc(CNCCc2c[nH]c3ccccc23)c1OCc1ccccc1F", "z-score": 0.89}
{"smiles": "CCN(CC)S(=O)(=O)c1cccc(C(=O)Nc2cccnc2)c1", "z-score": -0.0652}
{"smiles": "CC(/C=N/n1c(-c2ccc(C)cc2)n[nH]c1=S)=C\\c1ccco1", "z-score": 0.323}
{"smiles": "O=C1O/C(=C/C(=O)N2CCOCC2)c2ccccc21", "z-score": -0.258}
{"smiles": "O=C(NNC(=O)C1CC(c2cccnc2)=NO1)Nc1cccc(F)c1", "note": "(stereo not given)", "z-score": 0.509}
{"smiles": "CCOC(=O)C1CCc2nc3ccccc3c(=O)n21", "note": "(stereo not given)", "z-score": 0.125}
{"smiles": "Cc1ccc(-c2cc(C(=O)O)c3cc(Br)ccc3n2)o1", "z-score": -0.276}
{"smiles": "O=S(=O)(Nc1ccc(S(=O)(=O)N2CCCCC2)cc1)c1ccc(Br)s1", "z-score": -1.33}
{"smiles": "Cc1cccc(CCNS(=O)(=O)c2ccc(S(=O)(=O)N3CCC(C)CC3)cc2)c1", "z-score": 0.0452}
{"smiles": "N#CC1=C(S)N(c2ccccc2)C(c2ccc(-c3cc(Cl)ccc3Cl)o2)NC1=O", "note": "(stereo not given)", "z-score": -0.413}
{"smiles": "COC(=O)c1ccc(NC(=O)CN(Cc2ccc(Cl)cc2)S(C)(=O)=O)cc1", "z-score": 0.32}
{"smiles": "Cn1nnc(NC(=O)c2ccc(C(C)(C)C)cc2)n1", "z-score": -1.22}
{"smiles": "CC(=O)Nc1nc(C)c(Oc2ccc(Cl)cc2Cl)c(=O)[nH]1", "z-score": -0.149}
{"smiles": "CCC(C)(C)NC(=O)C(c1ccc(C)cc1)N(CC1CCCO1)C(=O)CNC(=O)c1cccs1", "note": "(stereo not given)", "z-score": -0.118}
{"smiles": "COc1ccc(NC2=C(C(C)=O)C(c3ccc4c(c3)OCO4)C(C(C)=O)C(C)(O)C2)cc1", "note": "(stereo not given)", "z-score": -0.297}
{"smiles": "CSC1=N/C(=C\\c2cccc(F)c2)C(=O)S1", "z-score": -0.705}
{"smiles": "COC(=O)c1ccccc1NC(=O)Nc1cccnc1", "z-score": 0.0538}
{"smiles": "Cc1ccc(C(=O)NCCc2nnc3ccc(SCC(=O)Nc4ccc(C)cc4C)nn23)cc1", "z-score": 0.231}
{"smiles": "CCCOc1ccc(C(=O)Nc2cc(-c3nn4c(C)nnc4s3)ccc2C)cc1", "z-score": -0.185}
{"smiles": "OCCN(CCO)Cc1csc2ccccc12", "z-score": -0.134}
{"smiles": "OCCN1CCN(C(=S)c2ccc(Br)cc2)CC1", "z-score": -0.129}
{"smiles": "CC(=O)N1C(C(=O)O)CSC1c1cccc(C)c1", "note": "(stereo not given)", "z-score": -0.158}
{"smiles": "Clc1ccc(SCc2cc(Cl)nc(-c3ccccc3)n2)cc1", "z-score": 0.0736}
{"smiles": "CC1=C(C(=O)Nc2ccc(C)cc2)C(c2cccs2)NC(=S)N1", "note": "(stereo not given)", "z-score": -0.316}
{"smiles": "Cn1c(NC(=O)c2ccc(Cl)cc2Cl)cc(=O)n(C)c1=O", "z-score": -0.291}
{"smiles": "Cc1nc2ccccc2c(=O)n1NCc1cc(Br)cs1", "z-score": -0.577}
{"smiles": "CCn1c2ccc(F)cc2c2nnc(NN)nc21", "z-score": -0.0973}
{"smiles": "COC(=O)c1c(NC(=O)c2ccoc2C)sc2c1CCC2", "z-score": -0.362}
{"smiles": "O=C(N1CCOCC1)N1CCN(C(=O)N2CCOCC2)CC1", "z-score": -0.108}
{"smiles": "CCc1ccc(C(CC(=O)c2ccc(Cl)cc2)C(=O)O)cc1", "note": "(stereo not given)", "z-score": -0.0449}
{"smiles": "CCN1CC2=C(OC(N)=C(C#N)C2c2cccs2)/C(=C/c2cccs2)C1", "note": "(stereo not given)", "z-score": -0.471}
{"smiles": "C=CCn1c(N)c(C(=O)N2CCN(C)CC2)sc1=S", "z-score": 0.461}
{"smiles": "Cc1cccc(N=C2NN=C(c3c[nH]c4ccccc34)CS2)c1", "z-score": 0.583}
